# From PubChem BioAssay (NCATS)
# Where “and” joins values, the source holds several entries; their conditions need not be identical. Identical values can stand only once. This list was built around the results that the source calls inconclusive (neither active nor inactive); the mix of calls is not that of the screen. Entries that show only a call come without a potency. A potency beside an inconclusive call is a rough fit, not a confirmed value. Calls of active or inactive are those of the source. The call rests on the fitted dose curve; in most records, active means well fitted cell-killing curve with a large enough effect; inconclusive means small, poorly fitted or top-dose-only effect, or effect the other way; inactive means no such curve, though single readings can be large or run the other way.
# Experiment: Viability qHTS for spleen associated tyrosine kinase inhibitor (SYKi) naive MV4-11 cells (AID 1963823); further: nearly all actives have a fitted effect of over 40% in size
# Conditions: MV4-11 AML viability, CellTiter-Glo luminescence, 72 h; series mostly up to 45 µM
# In short: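 Read-out: CellTiter-Glo luminescence. Exposure: 72 hr, 37 C, 5% CO2, 95% humidity. Cells: MV4-11 without SYK inhibitor history, 500/well, qHTS format.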
# Potency means the concentration at half of the fitted maximal effect; tags describe the fitted curve by direction and shape.
row,SMILES,Potency
1,OC[C@H]1O[C@@H](n2cnc3c(NCc4ccc(O)cc4)ncnc32)[C@H](O)[C@@H]1O,active: 1.03 µM
2,CC(C)O[C@@H]1O[C@H](CO)[C@@H](O)[C@H](O)[C@H]1O,inactive
3,C/C(=C/CO)CC[C@H]1[C@]2(C)C[C@H](O)CC(C)(C)[C@H]2CC[C@]1(C)O,inactive
4,CSc1ccc(C(=O)c2[nH]c(=O)[nH]c2C)cc1,inactive
5,CCC(O)C(C)C1CCC(C(C)C(=O)O)O1 (stereo not given),inactive
6,CC(C)=CCC[C@](C)(O[C@@H]1O[C@H](CO[C@@H]2OC[C@@H](O)[C@H](O)[C@H]2O)[C@@H](O)[C@H](O)[C@H]1O)[C@H]1CC[C@]2(C)[C@@H]1[C@H](O)C[C@@H]1[C@@]3(C)CC[C@H](O[C@@H]4O[C@H](CO)[C@@H](O)[C@H](O)[C@H]4O[C@@H]4O[C@H](CO)[C@@H](O)[C@H](O)[C@H]4O)C(C)(C)[C@@H]3CC[C@]12C,inactive
7,CC(C)c1c2cc(-c3ccnc(NC4CCC(NC5CCOCC5)CC4)n3)ccc2nn1C (stereo not given),active: 130 nM and active: 105 nM
8,CC1=CC(=O)[C@@]2(C(C)C)C[C@@H]12,"inconclusive: 25.9 µM [cytotoxic, single point]"
9,O=C(NCc1cccc(O)c1)c1cc2cc(F)ccc2[nH]1,active: 16.4 µM
10,CC(C)C(N)C(=O)OCCOCn1cnc2c(=O)[nH]c(N)nc21 (stereo not given),inactive
